{"source": "PubChem BioAssay AID504466", "about": "(National Center for Advancing Translational Sciences (NCATS), 2011)", "note": "Out of some 330,000 compounds screened, about 4,200 (1.3%) were called active. The inconclusive results got no clear call from the source; some entries with a clear call stand among them for comparison. Calls come from the whole dose curve; as a rule, active = well fitted activation curve with a large enough effect; inconclusive = small, poorly fitted or top-dose-only effect; inactive = no such curve, though single readings can be large or run the other way. A potency beside an inconclusive call is a rough fit, not a confirmed value. Potency is the fitted concentration of half-maximal effect; tags give direction and shape of the fitted curve."}
{"assay": "qHTS screen for small molecules that induce genotoxicity in human embryonic kidney (HEK293T) cells expressing luciferase-tagged ELG1; note: nearly all actives have a fitted effect of over 60% in size", "conditions": "HEK293T ELG1-luciferase reporter, luminescence, 16 h; series mostly up to 46 µM", "method_in_brief": "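Screening used a luciferase reporter fused to human ELG1 in HEK293T cells. Luminescence was read on a CCD plate imager after 16 hr exposure and 30 min ONE-Glo incubation.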"}
{"smiles": "O=C(COC(=O)c1c(F)cccc1Cl)NC1CCCC1", "Potency": "inconclusive: 18.3 µM [activator, partial curve, poor fit]"}
{"smiles": "Cc1ccc(/C=C(\\C#N)C(=O)N2CCCC2)c(C)c1", "Potency": "inconclusive: 20.6 µM [activator, single point]"}
{"smiles": "O=C(O)c1cccc(CSc2nnc(COc3ccccc3)o2)c1", "Potency": "inactive"}
{"smiles": "Cc1ccccc1NC(=O)c1ccc2nccnc2c1", "Potency": "inactive"}
{"smiles": "CCn1nc(C)c(/C=N/NC(=O)CSc2ccccn2)c1C", "Potency": "inconclusive: 23.1 µM [activator, partial curve, poor fit]"}
{"smiles": "CC(C)(C)C(=O)c1sc2nc(-c3cccs3)cc(C(F)(F)F)c2c1N", "Potency": "inactive"}
{"smiles": "CC(C)(O)P(=O)(O)CCc1ccccc1", "Potency": "inactive"}
{"smiles": "Clc1ccc(-c2ccn[nH]2)cc1", "Potency": "inactive"}
{"smiles": "O=C(CCNS(=O)(=O)c1ccc2[nH]c(=O)oc2c1)Nc1cccc(Br)c1", "Potency": "inactive"}
{"smiles": "CN1N=C2c3ccccc3CCCC2C1c1ccc(F)cc1", "note": "(stereo not drawn)", "Potency": "inconclusive: 16.4 µM [activator, partial curve, poor fit]"}
{"smiles": "CCN=C1NN=C(c2cc(C)n(Cc3ccco3)c2C)CS1", "Potency": "inconclusive: 0.146 µM [activator, full curve, poor fit]"}
{"smiles": "O=C(C1CCC1)N1CCc2cc(S(=O)(=O)N3CCCCC3)ccc21", "Potency": "inconclusive: 16.4 µM [activator, partial curve, poor fit]"}
{"smiles": "COc1cc(/C=C/c2ccc3c(Br)cc(Br)c(O)c3n2)ccc1O", "Potency": "inconclusive: 29.1 µM [activator, single point]"}
{"smiles": "CCC(C)C(=O)N1CCc2cc(-c3csc(N)n3)ccc21", "note": "(stereo not drawn)", "Potency": "active: 5.8 µM"}
{"smiles": "C=CCc1cccc(C=Nc2cccn3cc(-c4ccccc4)nc23)c1O", "Potency": "inconclusive: 20.6 µM [activator, partial curve, poor fit]"}
{"smiles": "CCNC(=S)Nc1ccc(OCc2nc3ccccc3s2)cc1", "Potency": "inconclusive: 10.3 µM [activator, partial curve, poor fit]"}
{"smiles": "CC(C)CNC(=O)COCc1cc(-c2ccc3c(c2)OCO3)on1", "Potency": "inconclusive: 20.6 µM [activator, partial curve, poor fit]"}
{"smiles": "CCNC(=O)CC1C(=O)N(c2ccc(OC)cc2)C(=O)N1CCOC", "note": "(stereo not drawn)", "Potency": "inconclusive: 25.9 µM [activator, partial curve, poor fit]"}
{"smiles": "COc1ccc2nc(SCC(=O)Nc3ccc4c(c3)OCCO4)[nH]c2c1", "Potency": "inconclusive: 13 µM [activator, partial curve]"}
{"smiles": "COc1ccccc1/C=C/C=N/NC(=O)c1cccs1", "Potency": "inconclusive: 9.2 µM [activator, partial curve]"}
{"smiles": "Cc1cccc(C(=O)O/N=C(\\N)c2ccc(Cl)cc2)c1", "Potency": "inconclusive: 20.6 µM [activator, partial curve]"}
{"smiles": "Cc1ccc(C)c(N2CCN(c3ncnc4c3cnn4-c3ccccc3)CC2)c1", "Potency": "inactive"}
{"smiles": "O=C(Nc1nc(=O)c2ccccc2s1)c1ccc(F)cc1", "Potency": "inconclusive: 9.2 µM [activator, partial curve]"}
{"smiles": "COc1cc(C(=O)Nc2ccc3c(c2)ncn3C(C)(C)C)cc(OC)c1OC", "Potency": "inactive"}
{"smiles": "CC(C)C(NC(=O)c1ccc(Cl)cc1)C(=O)NCC1CCCO1", "note": "(stereo not drawn)", "Potency": "inactive"}
{"smiles": "Oc1cccc(/C=N/Nc2ccc(Cl)nn2)c1O", "Potency": "inconclusive: 23.1 µM [activator, partial curve, poor fit]"}
{"smiles": "CCCC1(c2ccccc2)NC(=O)N(CC(=O)Nc2sc(-c3ccccc3)cc2C(=O)OCC)C1=O", "note": "(stereo not drawn)", "Potency": "inconclusive: 18.4 µM [activator, partial curve, poor fit]"}
{"smiles": "O=C(NNC(=O)c1cc2cc3ccccc3nc2s1)c1cccc(Cl)c1", "Potency": "inconclusive: 29.1 µM [activator, partial curve, poor fit]"}
{"smiles": "CCn1cc(C(=O)NCc2ccco2)c(=O)c2cc(S(=O)(=O)N3CCc4ccccc4C3)ccc21", "Potency": "inactive"}
{"smiles": "NC(=O)c1ccc(NC(=O)c2ccc3c(c2)OCO3)cc1", "Potency": "active: 18.4 µM"}
{"smiles": "O=C(Nc1nc(-c2cccnc2)cs1)c1ccccc1F", "Potency": "active: 18.3 µM"}
{"smiles": "Cc1sc(NC(=O)/C=C/c2ccco2)c(C(=O)O)c1C", "Potency": "inconclusive: 8.2 µM [activator, partial curve, poor fit]"}
{"smiles": "CN(C)/C=N/c1nc(-c2ccc3c(c2)OCO3)cs1", "Potency": "inconclusive: 11.6 µM [activator, partial curve]"}
{"smiles": "Cc1ccc(S(=O)(=O)N(C)C)cc1NC(=S)NC(=O)C12CC3CC(CC(C3)C1)C2", "Potency": "inconclusive: 32.6 µM [activator, partial curve, poor fit]"}
{"smiles": "O=c1[nH]cnc2cc(-c3ccccc3)sc12", "Potency": "inconclusive: 8.2 µM [activator, partial curve]"}
{"smiles": "CC(C)(C)C(=O)NC(=S)Nc1cccc(C(=O)O)c1", "Potency": "inconclusive: 2.06 µM [activator, full curve, poor fit]"}
{"smiles": "O=C(O)c1cccc(N/N=C/c2ccc(F)c(F)c2)c1", "Potency": "inconclusive: 0.651 µM [activator, partial curve, poor fit]"}
{"smiles": "COC(=O)c1ccc(COC(=O)CNC(=O)C2CCCCC2)cc1", "Potency": "inactive"}
{"smiles": "c1ccc(-c2nnc(NC3=NCCC3)o2)cc1", "Potency": "active: 1.83 µM"}
{"smiles": "C[C@H]1CN([C@@H](C)CO)C(=O)Cc2cc(NC(=O)Cc3ccccc3)ccc2O[C@H]1CN(C)S(=O)(=O)c1cccs1", "Potency": "inactive"}
{"smiles": "COc1ccc(CCNC(=O)CSc2nnnn2-c2ccc(OC)c(OC)c2)cc1OC", "Potency": "inconclusive: 32.6 µM [activator, single point]"}
{"smiles": "O=C(Nc1ccc2c(c1)nc1n2CCOC1)c1ccco1", "Potency": "inconclusive: 14.6 µM [activator, partial curve]"}
{"smiles": "O=[N+]([O-])c1ccc(CSc2ccc(S(=O)(=O)N3CCCCCC3)cn2)cc1", "Potency": "inactive"}
{"smiles": "Cc1cc(C(=O)CN2C(=O)NC3(CCCc4ccccc43)C2=O)c(C)n1Cc1ccco1", "note": "(stereo not drawn)", "Potency": "inconclusive: 29.1 µM [activator, partial curve, poor fit]"}
{"smiles": "CSc1ccc(/C=C/C(=O)c2ccc(NC(C)=O)cc2)cc1", "Potency": "inactive"}
{"smiles": "CC(C)N(Cc1cc2ccccc2[nH]c1=O)C(=O)c1cccnc1", "Potency": "inactive"}
{"smiles": "c1ccc2cc(CSCc3nc4ccccc4[nH]3)ccc2c1", "Potency": "inconclusive: 32.6 µM [activator, partial curve, poor fit]"}
{"smiles": "COc1ccc(OC)c(Nc2nc(-c3cccs3)cs2)c1", "Potency": "inconclusive: 29.1 µM [activator, single point]"}
{"smiles": "COc1ccc(CNC(=O)C2CCCN(S(=O)(=O)c3cccc4nsnc34)C2)cc1", "note": "(stereo not drawn)", "Potency": "inactive"}
{"smiles": "Cc1cc(C(=O)CSc2nncs2)c(C)n1Cc1ccco1", "Potency": "inconclusive: 2.31 µM [activator, partial curve]"}
{"smiles": "Cc1cccc2c1-c1sc(C(=O)N3CCCCC3)cc1CO2", "Potency": "inconclusive: 10.3 µM [activator, partial curve]"}
{"smiles": "Cc1nc2c(-c3ccc(F)cc3)cnn2c(N)c1-c1ccc(F)cc1", "Potency": "active: 1.16 µM"}
{"smiles": "CC(C)(O)[C@H]1Cc2cc3ccc(=O)oc3cc2O1", "Potency": "inconclusive: 20.6 µM [activator, partial curve]"}
{"smiles": "Cc1cc(OCC(=O)N2CCCCCC2)ccc1[N+](=O)[O-]", "Potency": "inconclusive: 11.6 µM [activator, partial curve]"}
{"smiles": "CCN1C(=O)/C(=C/c2nc3ccccc3c(=O)[nH]2)c2ccccc21", "Potency": "inconclusive: 20.6 µM [activator, partial curve, poor fit]"}
{"smiles": "Cc1ccn2cc(-c3ccc4c(c3)NC(=O)CO4)nc2c1", "Potency": "inconclusive: 0.708 µM [activator, full curve, poor fit]"}
{"smiles": "CC(=O)c1sc(NCCOc2ccc(C)cc2)nc1C", "Potency": "inconclusive: 9.2 µM [activator, partial curve, poor fit]"}
{"smiles": "O=C(CSc1nc(-c2ccc(F)cc2)cs1)N1CCOCC1", "Potency": "active: 18.4 µM"}
{"smiles": "Cc1ccc(NC(=O)c2noc3c2CCCCC3)cc1C", "Potency": "inconclusive: 0.58 µM [activator, full curve]"}
{"smiles": "CC(=O)c1ccc2c(c1)CC(C)C(=O)N2C", "note": "(stereo not drawn)", "Potency": "inconclusive: 23.1 µM [activator, single point]"}
{"smiles": "COC(=O)c1c(-c2ccccc2)csc1N1C(=O)Nc2ccccc2N1O", "Potency": "inconclusive: 18.3 µM [activator, partial curve, poor fit]"}
{"smiles": "Nc1ccc(O)cc1C(=O)OCC(=O)C12CC3CC(CC(C3)C1)C2", "Potency": "inactive"}
{"smiles": "O=C(NOCc1ccccc1)c1ccccc1", "Potency": "active: 6.51 µM"}
{"smiles": "c1ccc(Nc2nc3ccccc3o2)cc1", "Potency": "active: 1.84 µM"}
{"smiles": "Cc1cc(/C=N/NC(=O)c2cccc(F)c2)c(C)n1-c1ccccc1", "Potency": "inconclusive: 1.58 µM [activator, partial curve]"}
{"smiles": "O=C(CSc1nc2nc(-c3cccs3)cc(C(F)(F)F)c2c(=O)[nH]1)C(F)(F)F", "Potency": "inconclusive: 32.6 µM [activator, partial curve, poor fit]"}
{"smiles": "CCCCOc1ccc(N=Nc2ccc(N)nc2N)cn1", "Potency": "inconclusive: 13 µM [activator, single point]"}
{"smiles": "Cc1ccccc1CSc1nnc(-c2ccncc2)n1C", "Potency": "inactive"}
{"smiles": "CCCCOC(=O)C1=C(C)NC(=O)NC1c1cccc([N+](=O)[O-])c1", "note": "(stereo not drawn)", "Potency": "inactive"}
{"smiles": "Cc1cc(C)nc(SCC(=O)Nc2cccc(S(=O)(=O)N(C)C)c2)n1", "Potency": "inactive"}
{"smiles": "Cc1cccc2sc(N(CCCN(C)C)C(=O)c3ccc4ncsc4c3)nc12", "Potency": "inconclusive: 23.1 µM [activator, partial curve, poor fit]"}
{"smiles": "COc1ccc(NC(=O)CSc2nc(SC)ns2)cc1", "Potency": "inconclusive: 25.9 µM [activator, single point]"}
{"smiles": "CC(C)(C)c1ccc(OCC(=O)Nc2cccc(S(=O)(=O)NC3=NCCCCC3)c2)cc1", "Potency": "inactive"}
